Measured values from the supplement of paper PMC7726561.
In all, about 1,400 sequences were measured (“thermal melting temperature (Tm) of peptide-HLA complex”: median about 60, lowest 2% from about 45 on). The list shows a part of the results.

Target: HLA-B*07:02
Assay: thermal melting temperature (Tm) of peptide-HLA complex; higher = more thermostable pHLA complex
Conditions: C1R-B*07:02
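Also: cell lysates heated 10 min at 37–73 °C, remaining pHLA pulled down with pan-class I antibody, peptides quantified by DIA-MS versus 37 °C, Tm where half the complex is lost.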

| Sequence | thermal melting temperature |
| --- | --- |
| VPNQKRLTLL | 62.4 °C |
| NPNLRKNVL | 57.4 °C |
| KPNEFASQINL | 61.6 °C |
| NPHEPWNRL | 56.8 °C |
| SPYPWPLNHI | 61.1 °C |
| FPRLPPASV | 61.7 °C |
| SPITGRSKL | 61.3 °C |
| QPQFQRQGL | 60.4 °C |
| RPYEPINSI | 59.8 °C |
| AIRNAMGSL | 55.7 °C |
| KPIPLPRF | 53.2 °C |
| QPRLFTMDL | 60.2 °C |
| LPKVGLIAF | 62.7 °C |
| EPRYALTTTL | 57.8 °C |
| IPYGERITL | 61.4 °C |
| APKAPAATSIL | 62 °C |
| VPALPKSLISL | 64.4 °C |
| APDKHHITPLL | 43.7 °C |
| IVDGNHRLTL | 58.4 °C |

| Sequence | thermal melting temperature |
| --- | --- |
| APAERQIDL | 60.1 °C |
| SPTLPAARSSL | 56.9 °C |
| RPFERTITM | 56.5 °C |
| QPILRFLQL | 60.8 °C |
| RPIAAGDISTF | 56.6 °C |
| RPPTLQPPTL | 52.1 °C |
| RPTGSVSSTL | 53.4 °C |
| KPYAHILSV | 55.5 °C |
| SPMSDVVSREL | 62.1 °C |
| SPRGFPLGLSA | 62.3 °C |
| TPIQGTSEL | 59.8 °C |
| RPYPQVQML | 60.9 °C |
| LPRGSIPRSL | 62.3 °C |
| NPRDLPLMAL | 58.4 °C |
| APILRARLLPL | 47.3 °C |
| SPRSVGPFAL | 62.8 °C |
| RPEEGFVEL | 54.5 °C |
| QPAPTPLKM | 56.8 °C |
| RPYSPSQYAL | 56 °C |

| Sequence | thermal melting temperature |
| --- | --- |
| SPNQSLRLGL | 61 °C |
| APRAPRALAAA | 56.9 °C |
| PAEGRVAL | 56.8 °C |
| NPHGARLSL | 57.6 °C |
| APFTGSSLEL | 60 °C |
| SPRPVALAL | 63.1 °C |
| NPRQPLPASGL | 58.3 °C |
| QPRIFGGVL | 62.6 °C |
| TPHYVTQVI | 59.7 °C |
| RPFNSWEAL | 61.5 °C |
| RPISVIGGVSL | 62.3 °C |
| APIAKVGVL | 62.1 °C |
| LPHGGEGWQQL | 58.4 °C |
| LPHNRLVSL | 60.6 °C |
| APNLGRSFHIL | 61.5 °C |
| HPLSNPAEL | 57 °C |
| SPSLPSRTL | 59.4 °C |
| LPDGKRAVV | 60.7 °C |
